Out of some 43,000 compounds screened, about 200 (0.47%) were called active. Inconclusive results (about 12%) are left out. Calls follow the shape of the dose curve; as a rule, active = well fitted cell-killing curve with a large enough effect; inconclusive = small, poorly fitted or top-dose-only effect, or effect the other way; inactive = flat fitted curve, though single readings scatter. The list shows a part of the results.
assay: Cell viability qHTS assay in S16 Pmp22-F2sN cells; settings: S16 Pmp22-F2sN Schwann cells (luciferase reporters placed in the Pmp22 gene) viability, CellTiter-Glo, 24 h; series mostly up to 57.5 µM; activity change, negative = cytotoxicity: at the top concentration; also: nearly all actives have a fitted effect of over 65% in size
Procedure, shortened: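 S16 Schwann cells carrying the Pmp22-F2sN reporter, seeded in 1536-well format, were exposed to library compounds for 24 h at 37C. Viability was read as CellTiter-Glo luminescence after 15 min at room temperature.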
% is scaled to controls: 0 for no effect and ±100 for the full control effect.

Row | Structure (SMILES) | activity change, negative = cytotoxicity
1 | O=C(C1COc2ccccc2O1)N1CCN(c2nc3ccc(F)cc3s2)CC1 (configuration not stated) | inactive: -28.9%
2 | NC(=O)C1CCN(C(=O)c2cccc(NC(=O)c3nsc4ccccc34)c2)CC1 | inactive: 2.36%
3 | Cc1noc(-c2ccc(-c3noc(-c4cccc(F)c4)n3)cc2)n1 | inactive: -0.52%
4 | CSC1=NC2(CCN(C(=O)NC3CCCCC3)CC2)N=C1c1ccc(C)cc1 | inactive: -15.4%
5 | COc1ccc(N2Cc3cccc(C(=O)Nc4cc(C)cc(C)c4)c3C2=O)cc1 | inactive: 4.24%
6 | Fc1ccc(CNc2ncnc3onc(-c4ccc(F)cc4)c23)cc1 | inactive: 0.868%
7 | CCc1c(CN2CCN(c3cccc(C)c3C)CC2)csc1C | inactive: 13%
8 | CCc1cccc(C)c1Nc1c(-c2ccccc2)nc2sccn12 | inactive: 0.865%
9 | O=C(C1COc2ccccc2O1)N(Cc1cccnc1)c1nc2ccc(Cl)cc2s1 (configuration not stated) | inactive: 2.85%
10 | Cc1ccc(C#N)c(=O)n1CC(=O)Nc1ccccc1C(F)(F)F | inactive: -2.79%
11 | Cn1c(=O)c2c(nc(SCC(=O)Nc3ccccc3)n2Cc2ccccc2F)n(C)c1=O | inactive: 7.8%
12 | CCN(CC)S(=O)(=O)c1nnc(NC(=O)COc2ccccc2F)s1 | inactive: 3.01%
13 | Nc1c(C(=O)Nc2ccc(OC(F)(F)F)cc2)nnn1Cc1ccccc1 | inactive: -0.0786%
14 | CCOc1ccc(CNC(=O)CSc2cc(=O)n(CC)c3ccccc23)cc1 | inactive: -5.92%
15 | CCOc1ccccc1NC(=O)C(CC(C)C)NS(=O)(=O)c1ccc2c(c1)oc(=O)n2C (configuration not stated) | inactive: -4.8%
16 | COC(=O)c1c(SC)nc2ccccc2c1OCc1ccc(Cl)cc1 | inactive: -27.6%
17 | Clc1ccc2c(c1)NC(c1ccncc1)=NC(c1cccs1)=N2 | inactive: 1.38%
18 | O=C(COCc1cc(-c2ccc3c(c2)OCO3)on1)N1CCN(c2cccc(Cl)c2)CC1 | inactive: 4.12%
19 | Cc1ccc(S(=O)(=O)N(Cc2nc(-c3cccc(C)c3)no2)C2CCCCC2)cc1 | inactive: -29.7%
20 | O=c1cc(-c2ccccc2)nc(SCc2nc(-c3ccc(Cl)cc3)no2)[nH]1 | inactive: -0.547%
21 | CNS(=O)(=O)c1cn(CC(=O)N2CCN(c3cccc(C)c3C)CC2)cc1S(=O)(=O)NC | inactive: 1.76%

Row | Structure (SMILES) | activity change, negative = cytotoxicity
22 | CCN1CCN(C(=O)c2cnn(-c3cccc(Cl)c3)c2C2CCN(C(=O)OC(C)(C)C)CC2)CC1 | inactive: 13.6%
23 | Cc1ccc2oc(-c3ccc(C)c(NC(=O)c4ccc(N5CCC(C)CC5)c([N+](=O)[O-])c4)c3)nc2c1 | inactive: 1.79%
24 | O=C(CCCN1C(=O)C(c2ccccc2)Oc2cccnc21)Nc1ccccc1C(F)(F)F (configuration not stated) | inactive: 19.4%
25 | CCCn1c(CNC(=O)c2ccc(F)cc2)nc2ccccc21 | inactive: -2.11%
26 | CC(C)CN(CCCNC(=O)CN1N=C(c2ccc(Cl)cc2)CCC1=O)CC(C)C | inactive: 18.6%
27 | O=c1c2cc3c(cc2n(Cc2ccc(F)cc2)c(=O)n1Cc1nc(-c2ccccc2)no1)OCO3 | inactive: 13.7%
28 | Cc1cccc(NC(=O)c2ccc3snnc3c2)c1C | inactive: 1.76%
29 | CCOC(=O)CNC(=O)Nc1cc(C(=O)NCc2ccccc2OC)ccc1N1CCCC1 | inactive: -0.786%
30 | Cc1ccccc1C(=O)NC1(C(F)(F)F)N=C(c2ccccc2)N(C2CCCCC2)C1=O (configuration not stated) | inactive: -2.61%
31 | CCOc1ccccc1CNC(=O)c1c(C)oc2ncnc(N3CCOCC3)c12 | inactive: 5.65%
32 | CCOc1ccc(NC(=O)CSc2ccc(-c3sc(-c4ccccc4)nc3C)nn2)cc1 | inactive: 2.7%
33 | CCC(Oc1ccccc1F)C(=O)N1CCC(c2nc3ccccc3s2)CC1 (configuration not stated) | inactive: 1.54%
34 | CCOc1ccc(NC(=O)C2CCCN(c3ccc(Sc4ccc(C)cc4)nn3)C2)cc1 (configuration not stated) | inactive: 17.8%
35 | COC(=O)C(CCSC)NC(=O)c1cc2c(n(-c3ccc(Cl)cc3)c1=O)CCCC2=O (configuration not stated) | inactive: 19.8%
36 | O=C(NC(=O)c1ccccc1)Nc1ccc(-c2cc(C(F)(F)F)nn2-c2ccccc2)cc1 | inactive: 1.07%
37 | COc1ccc(Cl)cc1NC(=O)C1CCCN(c2ncnc3onc(C)c23)C1 (configuration not stated) | inactive: -3.14%
38 | COc1ccc(Cl)cc1NC(=O)c1cn(C2CCCCC2)c(=O)c2c1c1ccccc1n2C | inactive: -2.19%
39 | CCOc1ccc(Nc2nc3cc(Cl)c(Cl)cc3nc2-n2nc(C)cc2C)cc1 | inactive: 4.48%
40 | Cc1c(C(=O)N(Cc2ccc(N(C)C)cc2)CC2CCCO2)oc2ccc(Cl)cc12 (configuration not stated) | inactive: -0.463%
41 | COc1ccc(N2CCN(c3csc4ccc(Cl)cc4c3=O)CC2)cc1 | inactive: 6.6%
42 | COc1ccccc1CCNC(=O)C1CCN(c2nnc(-n3cccc3CNc3ccc(C)cc3)s2)CC1 | inactive: -20%

Row | Structure (SMILES) | activity change, negative = cytotoxicity
43 | CCc1ccccc1Nc1nn2c(=O)c3ccc(C(=O)NCc4ccccc4OC)cc3nc2s1 | inactive: -4.47%
44 | CCOc1ccc(Nc2ncnc3c2nc2n3CCCC2)cc1 | inactive: -2.5%
45 | COc1ccccc1Cn1cc(C(=O)c2ccc(C)cc2)c(=O)c2cc(C)ccc21 | inactive: 2.78%
46 | Cc1ccc(-n2nc(CO)c(C(=O)NCCCc3ccccc3)n2)cc1C | inactive: -3.66%
47 | COc1ccc(CNC(=O)c2cc(-c3ccc(C)cc3)nc3n[nH]c(-c4ccc(Br)cc4)c23)cc1 | inactive: 3.62%
48 | Cc1ccc(C)c(S(=O)(=O)c2nnn3c2nc(NC(C)C)c2sccc23)c1 | inactive: -29.7%
49 | NS(=O)(=O)c1ccc(NC(=O)CN2C(=O)COc3ccc(Cl)cc32)cc1 | inactive: -19.8%
50 | CSc1ccc(CCNC(=O)c2ccc(-c3nc(COc4ccc(C)cc4)c(C)o3)cc2)cc1 | inactive: 2.74%
51 | COc1ccc(Br)cc1CNC(=O)CCSCc1ccc(C)cc1 | inactive: -5.11%
52 | Cc1ccc(S(=O)(=O)N2CCN(Cc3nc4ccc(C)cc4o3)CC2)cc1 | inactive: -17.8%
53 | O=C(CS(=O)(=O)c1cccc2nsnc12)N1CCN(c2cccc(C(F)(F)F)c2)CC1 | inactive: -9.72%
54 | O=C(Cn1cc(S(=O)(=O)c2ccccc2)c(=O)c2cc3c(cc21)OCO3)Nc1ccc(Cl)cc1 | inactive: 8.05%
55 | CCNc1cc(N2CCN(C3CCCCC3)CC2)c2noc3c2c1C(=O)c1ccccc1-3 | inactive: -4.21%
56 | O=C(O)Cc1sc(Nc2ccccc2)nc1-c1ccccc1 | inactive: -9.43%
57 | COc1ccc(S(=O)(=O)NCCS(=O)(=O)N2CCN(c3ccccc3)CC2)cc1C | inactive: 6.36%
58 | O=C(O)Cc1ccc(NC2(c3ccccc3)C(=O)c3ccccc3C2=O)cc1 | inactive: 4.34%
59 | COC(=O)c1ccccc1NC(=O)C1=C(C)C(=O)OC12CCCCCC2 | inactive: -16.7%
60 | COc1ccc(C(=O)Nc2ccccc2SCc2cc(=O)c3cccc(C)c3[nH]2)cc1 | inactive: 18.3%
61 | CC(Oc1ccc(Br)cc1)C(=O)Nc1ncn[nH]1 (configuration not stated) | inactive: -2.51%
62 | COc1ccc(N2CCN(Cc3cccn3-c3nnc(N4CCN(C5CCCCC5)CC4)s3)CC2)cc1 | inactive: -3.59%
